Results on 44 compounds are retold here after PMC4336329 (PLoS ONE, 2015).

Among all 310,000 compounds or so, about 14,000 (4.5%) showed an effect of 50% or more. The effect is printed as a negative number. The list shows a part of the results.
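Further: peak tail current of the secondary pulse compared with the same well before compound.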

The test deals with human ether-à-go-go-related gene (hERG) potassium channel (human, UniProt Q12809). The test can be described thus: primary screen, population patch clamp on CHO cells stably expressing hERG.
Chain of human ether-à-go-go-related gene (hERG) potassium channel (Q12809 whole entry, looked up): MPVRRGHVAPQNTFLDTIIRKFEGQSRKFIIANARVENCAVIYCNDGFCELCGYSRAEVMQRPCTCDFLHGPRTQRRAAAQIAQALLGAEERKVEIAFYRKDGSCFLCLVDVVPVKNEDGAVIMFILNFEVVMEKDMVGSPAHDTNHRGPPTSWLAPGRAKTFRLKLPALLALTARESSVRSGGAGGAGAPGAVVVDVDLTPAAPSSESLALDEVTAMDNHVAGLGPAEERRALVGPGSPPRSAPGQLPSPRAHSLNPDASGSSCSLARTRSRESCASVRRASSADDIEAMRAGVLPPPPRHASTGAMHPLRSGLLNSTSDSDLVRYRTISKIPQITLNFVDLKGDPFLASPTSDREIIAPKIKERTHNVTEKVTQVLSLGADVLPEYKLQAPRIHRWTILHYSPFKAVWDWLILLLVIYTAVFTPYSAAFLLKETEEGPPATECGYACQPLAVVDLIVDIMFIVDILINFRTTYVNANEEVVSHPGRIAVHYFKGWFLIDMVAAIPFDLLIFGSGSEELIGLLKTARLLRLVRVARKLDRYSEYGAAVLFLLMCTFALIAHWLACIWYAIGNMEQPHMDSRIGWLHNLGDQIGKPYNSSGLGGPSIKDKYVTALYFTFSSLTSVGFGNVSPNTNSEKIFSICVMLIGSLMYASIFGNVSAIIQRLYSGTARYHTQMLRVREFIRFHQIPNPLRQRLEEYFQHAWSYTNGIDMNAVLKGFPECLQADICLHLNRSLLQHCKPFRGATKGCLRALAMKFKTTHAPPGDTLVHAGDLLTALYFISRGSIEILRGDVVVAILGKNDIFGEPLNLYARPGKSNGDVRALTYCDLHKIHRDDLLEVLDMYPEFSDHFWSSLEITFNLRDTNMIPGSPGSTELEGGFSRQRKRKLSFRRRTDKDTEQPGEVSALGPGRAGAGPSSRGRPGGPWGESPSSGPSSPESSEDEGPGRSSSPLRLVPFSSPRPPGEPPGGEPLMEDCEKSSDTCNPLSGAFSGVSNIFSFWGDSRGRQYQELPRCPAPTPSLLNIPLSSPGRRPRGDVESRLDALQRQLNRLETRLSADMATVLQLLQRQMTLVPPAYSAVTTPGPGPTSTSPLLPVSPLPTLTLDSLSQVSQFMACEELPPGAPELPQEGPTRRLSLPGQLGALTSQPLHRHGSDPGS
With `Cc1nn(-c2ccccc2)c(Cl)c1/C=N\NC(=O)c1cncc(Br)c1`, the “hERG current change (%, negative = inhibition) at 10uM” value is on record as -21.1%.
With `COc1ccc(NC(=O)/C(Cl)=C(/Cl)S(=O)Cc2ccc(C)cc2)cn1` (centres unmarked), the “hERG current change (%, negative = inhibition) at 10uM” value is reported as -9.86%.
The result for `Oc1ccc(Oc2ccc(Oc3ccc(O)cc3)cc2)cc1` reads 14.2%; that for `O=C(CSc1nnc(CNC(=O)c2ccco2)o1)Nc1ccccc1C(F)(F)F`, 20.8%; that for `CC(Nc1c([N+](=O)[O-])c(=O)oc2ccccc12)C(Cl)c1ccccc1` (centres unmarked), 4.25%.
In the case of `N#CCCN(C(=O)CCl)c1cccc(Cl)c1` it was 6.52%; in that of `Cc1csc(NC(=O)CSc2nccn2C)n1`, 7.95%; in that of `O=C(NCc1ccco1)c1ccccc1NS(=O)(=O)c1cccs1`, 3.9%.
In the case of `COc1ccc(NC(=O)c2sc3ncn(CC(=O)N4CCN(c5ccccn5)CC4)c(=O)c3c2C)c(OC)c1` it was 19.5%.
For the compound `CC(C)CN=C(NS(=O)(=O)c1ccccc1)C(Cl)(Cl)Cl`, the “hERG current change (%, negative = inhibition) at 10uM” value was found to be 2.84%.
In the case of `CN(CCC1CCOCC1)C(=O)CC1C(=O)NCCN1Cc1cccc(F)c1` (centres unmarked) it was 17.7%; in that of `O=C(NCc1nc2ccccc2[nH]1)C1=C[C@H](C2CC2)C[C@H](OCCCCO)O1`, -9.4%.
In the case of `Cc1cc(C)c(S(=O)(=O)N2CCN(c3ccc([N+](=O)[O-])c(NCC4CCCO4)c3)CC2)c(C)c1` (centres unmarked) it was 18.9%; in that of `COc1ccc(Sc2nc3ccccc3n3c(C(F)(F)F)nnc23)cc1`, 7.55%; in that of `CC(C)(C)NCCOc1ccc(Br)cc1.Cl`, -20.4%.
In the case of `CCn1c(SCC(=O)c2cccs2)nnc1-c1ccco1` it was -2.68%.
Turning to `COc1ccc(OC)c(NC(=O)c2cc3ccccc3cc2OC)c1`, the “hERG current change (%, negative = inhibition) at 10uM” value was 2.44%.
In the case of `COc1ccc(OCCSc2nc(N)cc(=O)[nH]2)cc1`, the “hERG current change (%, negative = inhibition) at 10uM” value is -1.77%.
In the case of `CCN(CC)CCC(=O)N1c2ccccc2CCc2ccc(NC(=O)OC(C)C)cc21` it was -40.6%; in that of `O=C(Nc1ccc(Cl)cc1)c1sccc1-n1cccc1`, -8.31%.
The result for `Cn1c(CNC(=O)c2ccccc2F)nnc1SCC(=O)Nc1nncs1` reads 11.9%.
The result for `c1ccc(-c2cc(CSc3nc4ccccc4[nH]3)on2)cc1` reads 12.4%; that for `CC1(C)CC(=O)C=C(NCCN2CCN(C(=S)Nc3ccc(F)cc3)CC2)C1`, 6.5%; that for `COc1ccc(NC(=O)c2cc(-c3ccc(C)o3)nc3ccccc23)cc1`, 21.9%.
For `Oc1ccc(CNCC2COc3ccccc3O2)cc1` (centres unmarked), the “hERG current change (%, negative = inhibition) at 10uM” value worked out at 4.89%.
On to `CCCCn1c(SCC(=O)N2CCCC2=O)nc2cc(S(N)(=O)=O)ccc21`, for which the “hERG current change (%, negative = inhibition) at 10uM” value was -34%.
In the case of `CCCCCc1nc2c(c(=O)c3ccccc3n2C)c(=O)n1Cc1ccc(OC)cc1` it was -5.2%; in that of `CCCCn1c(CN2CCN(c3cccc(Cl)c3)CC2)nc2c1c(=O)n(C)c(=O)n2C`, -56.3%.
The result for `COc1ccc2cc(CCOC3CCCCO3)ncc2c1` (centres unmarked) reads -9.87%; that for `Cc1ccccc1NC(=O)c1ccco1`, 15%; that for `Nn1c(Cc2cccc3ccccc23)nnc1SCc1c(Cl)cccc1Cl`, -1.8%.
The result for `N#CCC(=O)NCCCOC(=O)Nc1ccc(Cl)c(Cl)c1` reads -5.37%; that for `CC(C)c1nc2sc3c(c2c(=O)n1N)CC(C)(C)OC3`, 8.71%.
Consider `COc1ccc(NC(=S)N2CCc3ccccc32)cc1OC`, for which the “hERG current change (%, negative = inhibition) at 10uM” value came out at 27.9%.
The result for `CCOC(=O)C1CCN(S(=O)(=O)c2ccc3c(c2)CC(C)N3C(=O)C2CC2)CC1` (centres unmarked) reads 2.69%; that for `CC(C)OC(=O)/C(=C\c1ccc2c(c1)c1ccccc1n2C)NC(=O)c1ccccc1`, 8.01%.
The result for `O=C(c1ccc(Cl)c(Cl)c1)N1CCC(=O)N(C(CO)Cc2ccccc2)CC1` (centres unmarked) reads 5.42%; that for `Cc1nnc(NC(=O)c2cc3ccccc3o2)s1`, -4.96%; that for `Clc1ccc2c(NCc3ccccn3)ccnc2c1`, -39.7%.
The result for `Cc1cc(S(=O)(=O)n2[nH]c(=O)c(CCO)c2C)c(Cl)cc1Cl` reads 8.77%; that for `CCOc1ccc(NC(=O)N(CCN2CCOCC2)Cc2ccc3c(c2)CCCN3CC)cc1`, -7.62%; that for `CC1=CC(C)(C)[N+](C)=CN1c1ccccc1.[I-]`, -7.2%.
Consider `O=C(Nc1ccc(N2CCOCC2)c(Cl)c1)c1ccc(-n2cnnc2)cc1Cl`, for which the “hERG current change (%, negative = inhibition) at 10uM” value was -16.9%.
The result for `Cc1cc(N2CCOCC2)n2ncc(-c3ccc(Cl)cc3)c2n1` reads 10.1%.
